# Data reported in paper PMC6919601, “Identification of Plasmodium dipeptidyl aminopeptidase allosteric inhibitors by high throughput screening” (PLoS ONE, 2019).
# Screen size: about 110,000 compounds; about 230 (0.21%) showed an effect of 50% or more. Some of the results follow.
# Biological target: DPAP1 (Plasmodium falciparum, UniProt Q8IIJ9)
# Assay: primary screen, percent inhibition; read by cleavage of a fluorogenic dipeptide substrate; higher = more effect of the substance
# Parameters: species or system P. falciparum D10 trophozoite lysates; single well
# 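Also: 30 min substrate incubation versus DMSO and 10 µM JCP410 controls.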
# Sequence of DPAP1 (Q8IIJ9 whole entry, looked up): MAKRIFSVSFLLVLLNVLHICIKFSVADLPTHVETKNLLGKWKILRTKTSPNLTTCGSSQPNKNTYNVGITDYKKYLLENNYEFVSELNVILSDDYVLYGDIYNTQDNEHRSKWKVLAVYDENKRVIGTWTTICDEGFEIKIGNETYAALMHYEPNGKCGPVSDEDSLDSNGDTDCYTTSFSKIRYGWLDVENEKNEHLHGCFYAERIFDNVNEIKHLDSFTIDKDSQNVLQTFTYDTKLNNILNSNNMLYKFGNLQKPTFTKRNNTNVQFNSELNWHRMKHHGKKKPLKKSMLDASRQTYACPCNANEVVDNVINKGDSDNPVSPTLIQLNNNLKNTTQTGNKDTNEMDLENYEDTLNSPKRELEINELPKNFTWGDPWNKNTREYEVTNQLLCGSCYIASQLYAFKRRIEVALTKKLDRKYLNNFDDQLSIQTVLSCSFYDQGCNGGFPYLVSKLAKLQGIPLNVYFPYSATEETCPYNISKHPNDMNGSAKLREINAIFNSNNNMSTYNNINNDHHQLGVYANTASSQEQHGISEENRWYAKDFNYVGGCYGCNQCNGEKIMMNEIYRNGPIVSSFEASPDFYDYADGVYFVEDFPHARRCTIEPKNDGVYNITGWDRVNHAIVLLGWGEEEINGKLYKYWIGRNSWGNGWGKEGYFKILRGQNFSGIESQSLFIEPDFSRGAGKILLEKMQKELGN
row,SMILES,% Inhibition @ 10 uM [%]
1,Cc1oc(-c2ccc(C(=O)NCCCc3ccccc3)cc2)nc1CS(=O)(=O)c1ccccc1,-6.11
2,COC(=O)c1ccccc1C(=O)Nc1ccc(Br)cn1,-6.07
3,C=Cc1ccc(Cn2c(C)c(CNCc3ccccc3)c(C(=O)O)c2C)cc1,-9.31
4,O=C(NCc1ccco1)Nc1cccs1,-1.11
5,CCOc1ccc(-c2nnc(NC(=O)C34CC5CC(CC(C5)C3)C4)s2)cc1,4.35
6,Cc1ccc(S(=O)(=O)Nc2cccc(F)c2)cc1,-1.77
7,C=CCN1C(=O)S/C(=C\c2cc(Br)cc(OCC)c2O)C1=O,-3.09
8,Cc1c(CNC(C)C23CC4CC(CC(C4)C2)C3)c(C(=O)O)c(C)n1Cc1ccc(Cl)cc1 (centres unmarked),-3.67
9,COCC(C)NC(=O)COCc1cc(-c2ccco2)on1 (centres unmarked),1.34
10,CN(C)CCNC1CCC(C(C)(C)C)CC1 (centres unmarked),1.57
11,Cc1cccc(C)c1CC(NC(=O)OCc1ccccc1)C(=O)NCC#N (centres unmarked),-5.04
12,NC1=NC(=O)/C(=C\c2cc3ccccc3nc2N2CCCCC2)S1,0.275
13,CC(=O)Nc1cccc(NC(=O)CSc2nc(C)c(C)c(C)c2C#N)c1,10.4
14,C/C(Cl)=C/Cn1c(=O)n(C/C=C(/C)Cl)c(=O)n(C/C=C(/C)Cl)c1=O,0.827
15,COc1cc(CNC2CCCCC2)ccc1OCC(=O)NC(C)(C)C,1.27
16,CC1=C(C(=O)Nc2cccc(F)c2)C(c2cccnc2)C2=C(O)CC(c3ccccc3)CC2=N1 (centres unmarked),-3.46
17,COc1ccccc1NC(=O)c1c(N)sc2c1CCCCC2,-1.28
18,O=C1OC(c2ccco2)=N/C1=C\c1cccc(Cl)c1Cl,2.81
19,Cc1ccc(SC(C)C(=O)NCC(C)C)cc1 (centres unmarked),3.05
20,NC(=O)C1CCN(CC(=O)Nc2cccnc2Cl)CC1,0.776
21,Cc1nc2cc(C(=O)NCc3ccco3)ccc2n1-c1cccc(F)c1,1.2
22,CC12OC3(CCCCC3)C(C)(OC13CCCCC3)O2,-0.736
23,COc1ccccc1-c1nc(-c2ccc(Cl)cc2)no1,-3.77
24,Cc1ccccc1NC(=O)c1cccc(N2C(=O)C3C4CCC(C4)C3C2=O)c1 (centres unmarked),-2.18
25,OC1CCCN(Cc2ccc(Cl)cc2Cl)C1 (centres unmarked),-6.47

row,SMILES,% Inhibition @ 10 uM [%]
1,O=C(Nc1nnc(-c2ccc(Cl)cc2Cl)s1)c1ccco1,8.97
2,Cc1ccccc1CSc1ncc(Cl)c(C(=O)NCc2ccc3c(c2)OCO3)n1,-4.54
3,CC(=O)Nc1ccc(Cc2ccc(NC(C)=O)c(C)c2)cc1C,1.9
4,CCO/C(O)=C1/C(C)=Nc2nc(SC)nn2C1c1ccccc1OCC (centres unmarked),-4.58
5,c1ccc2c(c1)OCC(c1nnc3sc(-c4ccncc4)nn13)O2 (centres unmarked),2.68
6,NS(=O)(=O)c1ccc(CCNc2ncnc3onc(-c4ccc(Cl)cc4)c23)cc1,-5.76
7,CCOC(=O)C1CCN(Cc2ccc(O)cc2)CC1,-4.61
8,COc1ccc(C(=O)Nc2ccc(Cl)c(C(F)(F)F)c2)cc1,-1.25
9,Cc1ccc(-n2cccc2/C=C2/C(=N)N3C(=NC2=O)SN=C3S(C)(=O)=O)cc1,-1.76
10,Cc1ccc(S(=O)(=O)c2cnccn2)cc1,1.02
11,Cc1ccc(C(=O)Nc2nc(-c3nnn(-c4ccc(F)cc4C)c3C)ns2)cc1,-1.73
12,CC(C)(C)NC(=O)CCSc1nc2cc(Cl)ccc2o1,1.83
13,COc1ccc(C)cc1N(CC(=O)NCc1cccnc1)S(=O)(=O)c1ccccc1,-4.39
14,O=C(O)[C@@H]1CSC(c2ccc(Cl)cc2Cl)N1 (some centres unmarked),-3.38
15,CN1CCN(c2ccc3nnc(CCC(=O)N4CCN(C(=O)c5ccco5)CC4)n3n2)CC1,5.05
16,Cc1onc(-c2ccccc2Cl)c1C(=O)N1CCCCCC1,2.09
17,CC1CN(C(=O)c2ccccc2Cl)CCN1C(=O)c1ccccc1Cl (centres unmarked),3.65
18,Clc1ccc(CSc2nc[nH]n2)c(Cl)c1,-4.24
19,O=C(Nc1ccc2c(c1)OCCO2)c1cccc(OC(F)F)c1,0.727
20,CC(C)c1ccc(NC(=O)c2cccnc2)cc1,-9.68
21,Cc1ccccc1Cc1c(C)nc2c(C(=O)N3CCN(Cc4ccc5c(c4)OCO5)CC3)cnn2c1C,1.16
22,Cc1ccc(-c2nnc3n2N=C(c2ccc(Br)cc2)CS3)cc1,10.7
23,Cn1nc(-c2ccccc2F)c2cc(C(=O)N3CCN(C(=O)c4ccco4)CC3)sc21,0.317
24,COc1cc(/C=C/c2ccc3cccc(O)c3n2)c(Br)cc1O,-0.85
25,O=C(Nc1sc2c(c1C(=O)NCc1cccnc1)CCCC2)c1ccc(Br)cc1,0.206
